Laboratory results from article PMC4336329 (PLoS ONE, 2015).
In all, about 310,000 compounds went through this assay and about 14,000 (4.5%) showed an effect of 50% or more. Effects have a minus sign here. This is one part of the list.

Molecular target: human ether-à-go-go-related gene (hERG) potassium channel (human, UniProt Q12809)
Experiment: primary screen, population patch clamp on CHO cells stably expressing hERG
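Note: peak tail current of the secondary pulse compared with the same well before compound.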

Sequence of human ether-à-go-go-related gene (hERG) potassium channel (Q12809 whole entry, looked up): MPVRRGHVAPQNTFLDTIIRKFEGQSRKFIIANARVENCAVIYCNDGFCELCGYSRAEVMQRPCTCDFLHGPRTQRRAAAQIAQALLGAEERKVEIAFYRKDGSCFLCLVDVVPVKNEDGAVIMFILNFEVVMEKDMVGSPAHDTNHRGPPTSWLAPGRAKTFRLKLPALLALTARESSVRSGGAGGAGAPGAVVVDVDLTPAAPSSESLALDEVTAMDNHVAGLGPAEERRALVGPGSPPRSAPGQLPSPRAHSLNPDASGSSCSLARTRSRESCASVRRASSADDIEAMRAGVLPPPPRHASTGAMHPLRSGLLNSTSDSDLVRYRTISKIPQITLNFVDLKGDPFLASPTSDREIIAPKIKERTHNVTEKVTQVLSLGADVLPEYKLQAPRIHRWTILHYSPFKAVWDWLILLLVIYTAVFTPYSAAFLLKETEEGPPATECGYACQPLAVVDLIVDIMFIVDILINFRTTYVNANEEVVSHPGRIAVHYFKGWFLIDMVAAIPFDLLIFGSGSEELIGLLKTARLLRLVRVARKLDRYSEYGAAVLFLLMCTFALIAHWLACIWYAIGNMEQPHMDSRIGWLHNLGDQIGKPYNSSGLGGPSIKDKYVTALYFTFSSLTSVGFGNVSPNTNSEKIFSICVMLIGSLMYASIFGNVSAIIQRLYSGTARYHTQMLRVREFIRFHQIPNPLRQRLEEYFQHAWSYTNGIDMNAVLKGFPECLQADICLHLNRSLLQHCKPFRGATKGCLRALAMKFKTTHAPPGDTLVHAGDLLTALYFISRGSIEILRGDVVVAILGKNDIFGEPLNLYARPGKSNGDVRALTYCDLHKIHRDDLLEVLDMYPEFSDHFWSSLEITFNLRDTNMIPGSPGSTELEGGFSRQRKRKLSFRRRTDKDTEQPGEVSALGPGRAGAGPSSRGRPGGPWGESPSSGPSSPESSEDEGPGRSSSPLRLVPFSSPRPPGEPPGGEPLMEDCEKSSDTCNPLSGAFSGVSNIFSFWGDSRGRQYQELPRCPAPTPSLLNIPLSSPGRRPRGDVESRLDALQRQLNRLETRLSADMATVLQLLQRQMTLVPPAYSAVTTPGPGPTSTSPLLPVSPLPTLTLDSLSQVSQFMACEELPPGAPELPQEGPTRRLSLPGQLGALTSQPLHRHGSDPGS

Structure (SMILES) | hERG current change (%, negative = inhibition) at 10uM
COC(=O)Cn1c(C)nc([N+](=O)[O-])c1Br | -9.28%
O=C(Nc1cccc([N+](=O)[O-])c1)C1C2CC/C=C\CCC21 (stereo not shown) | 16.1%
CC1CCCCN1CCNC(=O)c1ccc2c(c1)N(Cc1cccc(Cl)c1)C(=O)c1ccccc1S2=O (stereo not shown) | -32.1%
CC(=O)c1cccc(NC(=O)CN(C)Cc2ccc(OC(F)F)cc2)c1 | -55%
CCOC(=O)c1nnn(CC(=O)Nc2cc(Cl)ccc2C)c1C(=O)OCC | -1.89%
N#CCOc1ccccc1/C=N/n1nnnc1N | 17.4%
CCCCc1ccc(S(=O)(=O)Nc2nnc(C)s2)cc1 | 24.2%
O=C(N/N=C/c1cc(Cl)ccc1O)c1ccccc1Br | 5.1%
O=C(C1CCCO1)N1CCN(Cc2nc3ccccc3c(=O)[nH]2)CC1 (stereo not shown) | 11.9%
COCCNC(=O)c1ccc(NS(C)(=O)=O)cc1 | 17.2%
Cc1[nH]n(-c2ccccc2)c(=O)c1Sc1ccc(Cl)cc1 | 12%
O=C(/C=C/c1cccc([N+](=O)[O-])c1)NCCSc1ccccc1 | -43.7%
N#CCC(=N)N1CCN(c2ccc(F)cc2)CC1 | -42%
COc1ccc(C(=O)N2CCN(CCc3ccccn3)CC2)cc1.Cl | -77.3%
COc1ccc(CCNC(=O)c2nc3ncccn3n2)cc1OC | 18.6%
CC(=O)c1sc(-c2ccccc2)nc1C | -0.327%
COc1cc(NC(=O)CSc2ccc(-c3ccccn3)nn2)cc(OC)c1 | 9.65%
Cc1ccn2cc(-c3cccc(NC(=O)CCC(=O)O)c3)nc2c1 | 20.9%
Cc1onc(-c2ccccc2Cl)c1C(=O)N1CCCC1 | 8.33%
COc1ccc(NC(=O)c2cc(C)no2)cc1 | 21.3%

Structure (SMILES) | hERG current change (%, negative = inhibition) at 10uM
COc1cc(COc2ccc3c(C)c(CC(=O)O)c(=O)oc3c2C)cc(OC)c1OC | 17.6%
O=C(NCCCO)c1nnc(Cc2c(F)cccc2Cl)o1 | 7.19%
CC(=O)c1ccc(-n2ccc(=O)cc2)cc1 | 8.1%
CC(C)OC(=O)CSc1nnc(-c2ccco2)n1N | -5.09%
Cc1ccc2nsnc2c1NC(=O)c1sc2ccccc2c1Cl | 18.1%
Cc1cc(OCC(=O)NC(C)c2ccccc2)ccc1[N+](=O)[O-] (stereo not shown) | -13.2%
CC(C)c1nc(CNC(=O)C2CCC(=O)N(Cc3ccc(Cl)cc3)C2)no1 (stereo not shown) | 3.8%
CCOC(=O)CC(=O)CSc1nc2c(c(-c3cccs3)c1C#N)CCC2 | -16.9%
CCOc1cc(C2NC(=O)NC(O)(C(F)(F)F)C2C(=O)c2ccc(OC)cc2)ccc1O (stereo not shown) | 4.02%
COc1ccc(NS(=O)(=O)c2ccc(NC(=S)NC(=O)/C=C/c3ccc(C)cc3)cc2)nn1 | 15.2%
CCOC(=O)CN1C(=O)CC(c2ccccc2)C1=O (stereo not shown) | 12.6%
Cc1cccc(-c2nc3ccccc3c(=O)n2NC(=O)c2cccs2)c1 | 1.65%
COc1ccc(Cl)cc1S(=O)(=O)N1CCN(C(=O)COc2ccccc2)CC1 | -19.3%
O=C(/C=C/c1ccc([N+](=O)[O-])cc1)Nc1cccnc1 | -62.7%
N#C/C(=C\c1ccccc1OCC(=O)O)c1nc2ccccc2[nH]1 | 8.46%
O=C(c1ccc2c(=O)n(Cc3ccco3)c(=S)[nH]c2c1)N1CCN(c2ccccc2)CC1 | 12.2%
CCCCCC/C(=N\NS(C)(=O)=O)c1ccccc1 | 2.07%
CCOc1cccc(OCCCCn2cnc3ccccc3c2=O)c1 | 5.62%
Cc1cc(SCC(=O)Nc2ncc(Cl)cc2Cl)nc2ccccc12 | 10.5%
COc1ccc(CN(C(=O)c2oc3ccccc3c2C)C2CCS(=O)(=O)C2)cc1OC (stereo not shown) | -24.6%

Structure (SMILES) | hERG current change (%, negative = inhibition) at 10uM
C=CCn1c(Cc2ccc(OC)cc2)nnc1SCC(=O)c1cccc([N+](=O)[O-])c1 | -14.1%
COCCCn1c(C)nnc1SCC(=O)Nc1ccc(C(C)=O)cc1 | 13.1%
C=CCn1c(-c2ccc(N)cc2)nc2ccccc21 | 1.02%
O=C(NCCN1Cc2ccccc2C1=O)c1cccs1 | 9.5%
O=C(NC(=S)Nc1c(F)cc(F)cc1Br)c1ccc2c(c1)OCCO2 | 22.5%
O=C(NN=C1C2CC3CC(C2)CC1C3)c1ccncc1 | 1.13%
CCCCn1c(N)c(N(CC)C(=O)c2cc(S(=O)(=O)N3CCCCCC3)ccc2OC)c(=O)[nH]c1=O | 4.53%
CC1CCN(c2nc(N(C)c3ccccc3)nc(N)c2[N+](=O)[O-])CC1 | 7.42%
CCCCc1ccc(NC(=O)CC(C)=O)cc1 | -20.4%
O=c1c2ccccc2nc(Cc2cccc([N+](=O)[O-])c2)n1-c1ccc(O)cc1 | -35.5%
Cc1ccccc1NNC(=O)C(=O)NNc1ccccc1C | 11.3%
COc1ccc(S(=O)(=O)N(C)CC(=O)Nc2ccc(F)cc2)cc1 | 3.38%
COC(=O)C1=C(c2ccc(OC)c(OC)c2)C[C@@H]2CC[C@H]1N2C(=O)N1CCCC1 | 15%
Cc1c2cn[nH]c(=O)c2c(C)n1-c1ccccc1 | 4.51%
COCc1c(C(=O)N/N=C(/C)c2ccc(OCc3ccccc3)cc2)nnn1-c1nonc1N | 9.35%
COc1cc(C(c2c(C)[nH][nH]c2=O)c2c(C)[nH][nH]c2=O)cc(Cl)c1O | 17.3%
CNC(=O)Nc1ccccc1C(=O)NCc1ccccc1 | -2.12%
O=C(Nc1cnc2sc3c(n2c1=O)CCCC3)c1ccc(F)cc1 | -10.6%
